# Laboratory results taken from the RNAGym collection of RNA variant scans (doi:10.1073/pnas.2313332121).
# This sample is rich in variants without activity.
# B1: TPR 5TU (parent)
# chain: GGAUCUUCUCGAUCUAACAAAAAAGACAAAUCUGCCACAAAGCUUGAGAGCAUCUUCGGAUGCAGAGGCGGCAGCCUUCGGUGGCGCGAUAGCGCCAACGUUCUCAACUAUGACACGCAAAACGCGUGCUCCGUUGAAUGGAGUUUAUCAUG
# Variants of: B1
# Assay: polymerase ribozyme fitness, log enrichment relative to wild type (log ratio); higher = more active; in vitro selection for triplet polymerase activity
# Summary of the method: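 The heterodimeric triplet polymerase ribozyme's subunits were each mutagenized into PCR-built libraries and transcribed. Every library was selected once, in triplicate, by annealing with a biotinylated primer, the partner subunit and triplets, incubating frozen at −7 °C, gel-excising extended constructs, capturing on streptavidin beads and running RT-PCR. Input and output libraries were Illumina-sequenced, with genotypes kept only at ≥10 input reads and ≥1 read per output. Fitness, from inverse-variance-weighted replicate averages, is the base-2 logarithm of genotype enrichment over wild-type enrichment.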
row,Variant,polymerase ribozyme fitness (log ratio)
1,A3G G70C C87A,≤ -4.2
2,A3G A29C C93U G124U,≤ -4.2
3,U4C C14G A39C G81A U90G C96A G140A A142G,≤ -4.2
4,A3U A23U U53A A110C,≤ -4.2
5,U4G A29C G34A C76G,≤ -4.2
6,U4G U31A U53A A73G U101A,≤ -4.2
7,U4A G50A U82G U134C,-2.39
8,A3U C76G C96A A122U,≤ -4.2
9,A3C U6G A26U G67C G83C A106G C118A U145C C149G,≤ -4.2
10,A3C U45G G50A G67C C85G A137G,≤ -4.2
11,A3G C8G G46A U82C G92A C96G A122U C125U,≤ -4.2
12,U4G U15C A41C A64G A66G U134G,≤ -4.2
13,A3U C5G C51U G67A U127A,≤ -4.2
14,A3U U82G U104G,-1.04
15,C5A A16U A20C A30U G46U C51U C72A,≤ -4.2
16,U4G C10U U31C A40C A49U G88U A110G C116U U134A U144C,≤ -4.2
17,A3G A26C G68A G84C C96U C108U G136C,≤ -4.2
18,A3U A28C C63U C85U A142C G152U,-3.91
19,A3U A52G C96G C131U,-0.0465
20,A3G C8G A73G C85U A91C G94U A122G G141C,≤ -4.2
21,U4G A28G A91G C93U A115U G133A,≤ -4.2

row,Variant,polymerase ribozyme fitness (log ratio)
1,A3U U7G A37U,≤ -4.2
2,A3G G94C,-1.07
3,A3C U7A C51U U55A A97G U102G C105U,≤ -4.2
4,A3U C36U C95U,-3.09
5,U4G A29C C75A C96U A115U U148A,-3.99
6,A3G A39U G59C G83U,-3.56
7,U4G A28C C38G U45G C87U C116G G126A G152A,≤ -4.2
8,A3C U7G A12U A28U C87U,≤ -4.2
9,A3G C35U U55A U104A A150G,≤ -4.2
10,A3G A40G C57A C72U C87A,≤ -4.2
11,U4A C14G A89U U90C G94U C114U G117U G133U,≤ -4.2
12,A3U A26C G71A,≤ -4.2
13,U4G U13G A30C U31A G50U C95U C103A C105U,≤ -4.2
14,A3G C5U C14U U15C U55A G67C C87U G88U A110U,≤ -4.2
15,U4C C18U G34A A40C C85U,≤ -4.2
16,A3C U6A A20U A23U C87A G133C G136U,≤ -4.2
17,U4C C14G A30G C38G U144C,≤ -4.2
18,U4G A20U G67A C103G,≤ -4.2
19,A3U C54G U78G C85A U127C C149G,≤ -4.2
20,U4G G50C A73G U102C,≤ -4.2
21,U4C A12G U31G G94C A121G,-0.0351

row,Variant,polymerase ribozyme fitness (log ratio)
1,U4C C10G A28C A49C G86A C99G U104G,≤ -4.2
2,U4C G62U A115U U144A,≤ -4.2
3,U4C C8A A39G U55A G88U C93U U102G,≤ -4.2
4,A3G A12C A24C A29U A41G A47U G83C A97U C129A U130C,≤ -4.2
5,U4C C5U A20C C87A A98C G133U U148G,≤ -4.2
6,U4G A22U A37C C95A C96A U127G,≤ -4.2
7,U4A U7A C14U A28G U53G C54A A64U C87A C103U C116A A122G,≤ -4.2
8,A3U A24G G81A G83U A89U A110C,≤ -4.2
9,U4A A17U A20G C36G C43U C76A G81C,≤ -4.2
10,U4A U6G A30G G68A G88C A120U U151A,≤ -4.2
11,U4G A16G C54U G62C G71A U101G C105U A142G U144A,≤ -4.2
12,U4A G11A A26C A60G G84U G126U C149G,≤ -4.2
13,U4G U56A C79U G83A,≤ -4.2
14,C5A A17G A19C A29G A30G C54G G94C A122U G128A U134G,≤ -4.2
15,A3G A19U U55C G84A,-0.956
16,U4G A19U A40C A73U C85G A91C,≤ -4.2
17,A3G U4A C38A A39C G59C G83U A137U,≤ -4.2
18,U4A A30U U55G G65U C76U C96U G141U,≤ -4.2
19,A3C U15C C18G A23C G48A A49C G50C G68C G92A C96G,≤ -4.2
20,C5A A16C G25U C57G C93A,≤ -4.2
21,U4A A28U G58A G68A A142G,≤ -4.2

row,Variant,polymerase ribozyme fitness (log ratio)
1,A3G U4G C32U U56A G74A G81A A120G,-0.184
2,U4C A47U C85U C105A C116G G143A A147U,≤ -4.2
3,U4C A30U A73U C105G U144A,≤ -4.2
4,U4C A23G C85U A98U G117A A119U G141U,≤ -4.2
5,A3U C35U A91U,≤ -4.2
6,U4G G11U A16C A29C C57U C87A C95U C99A C132G U139A U146C,≤ -4.2
7,A3G A23C A91C C95U C99U C118G,≤ -4.2
8,U4G A19U A60C A66C G71A C76A G133C,≤ -4.2
9,C5A A16U C35A C95U,≤ -4.2
10,A3G A41U A47G U101G G136U,≤ -4.2
11,U4C A22U A37U A49C G100U,≤ -4.2
12,A3U A21C U77G C96G,≤ -4.2
13,U4A A12G C35U C38A A47G C57A A66C C75G A137C G141C,≤ -4.2
14,A3C U56G C57G C116G,-2.89
15,U4G A37C C93U A147U C149G,≤ -4.2
16,U4C U15G U77A G92U C99G,≤ -4.2
17,U4G U6A A47C A60G C72A G88C G124U U134A,≤ -4.2
18,A3G U4G U15A C27U C38A C57G G92A A119U,≤ -4.2
19,U4G A41C G48C A60U A97G A107U,≤ -4.2
20,A3U A19C A37G A49U C51U C85U G92A C96A A97G U144A U146G,≤ -4.2
21,A3U A28C U55G U56G C63G G86C A91C,≤ -4.2
